# Experimental data reported in the supplement of paper PMC8728848.
# This is one part of the list.
# B1: PX9961X-pdi-531-24-531 (Parabacteroides distasonis) (protein)
# chain: DLTEEIHSSVIAENYYNNAGEVMAAMMRPWGHFCGTMQVAQSPWSCNELSSDCAAWPQKGRHGYDNGDWIRLHRHQWIPTDGQVVDAWKKLFEGIGYANNFLTDTENIDFEALQVPMSKAQAQAEMRVYRAYCYWYVMDMFGTAPICEKIGEINPSSKSRAELFAWIEKELNESIPSLSESKTETYGRVSKWGAYALLARLYLNAEIYTGQARWDDCIAACDELAKGGFALDKKWNDTFRADNDKRSTEIIWSIVYDEVYAKGMGWYQRWLHYAHQTGWDLQSGPWNGLVTQPTFYDSFADNDLRKIEGFLIGKQYPRKVDENGNYYYDTTAEPLKGSEEYNGQDLVFVNYIKSMTEGEENSGARSIKYEIQPGTTGDMNNDWVMFRYSEVIYNKAEALMRKNGGKATQEVVDMINSVRQRSFKAEDWEKAKYTTATLTMDEFLAEKGREFAFEGIRRTDLVRFNKFVTTSWWDKTASNEPKRNIFPIPQRQLDANANLSPNEANSLF
# Legend:
# Experiment in all cases: glycan array binding signal (z-score within array); higher = stronger binding
# Details in all cases: glycan notation: IUPAC condensed, linker removed
# [1] = biological target: GalNAc(b1-4)GlcNAc(b1-2)Man
# How it was run: (§1)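 The Consortium for Functional Glycomics database supplied 3228 glycan arrays, of which those lacking an available protein sequence were dropped. The binding signal, a within-array Z-score, was averaged across arrays of the same protein sequence and across linkers. Negative scores can be read as non-binding.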
# [2] = biological target: GalNAc(b1-4)GlcNAc(b1-2)Man(a1-3)[GalNAc(b1-4)GlcNAc(b1-2)Man(a1-6)]Man(b1-4)GlcNAc(b1-4)GlcNAc
# How it was run: as §1
# [3] = biological target: GalNAc(b1-4)GlcNAc(b1-3)GalNAc(b1-4)GlcNAc
# How it was run: as §1
# [4] = biological target: GalNAc(b1-4)GlcNAc6S
# How it was run: as §1
# [5] = biological target: GalNAc(b1-6)GalNAc
# How it was run: as §1
# [6] = biological target: GalNAc3S(b1-4)GlcNAc
# How it was run: as §1
# [7] = biological target: GalNAc3S(b1-4)GlcNAc3S
# How it was run: as §1
# [8] = biological target: GalNAc3S(b1-4)[Fuc(a1-3)]GlcNAc
# How it was run: as §1
# [9] = biological target: GalNAc4S6S(b1-4)GlcNAc
# How it was run: as §1
# [10] = biological target: GalNAc6S(b1-4)GlcNAc
# How it was run: as §1
# [11] = biological target: Glc(a1-4)Glc
# How it was run: as §1
# [12] = biological target: Glc(a1-4)Glc(a1-4)Glc(a1-4)Glc
# How it was run: as §1
# [13] = biological target: Glc(a1-6)Glc(a1-6)Glc
# How it was run: as §1
# [14] = biological target: Glc(a1-6)Glc(a1-6)Glc(a1-6)Glc
# How it was run: as §1
# [15] = biological target: Glc(b1-4)Glc
# How it was run: as §1
# [16] = biological target: Glc(b1-6)Glc
# How it was run: as §1
# [17] = biological target: GlcA(b1-3)Gal
# How it was run: as §1
# [18] = biological target: GlcA(b1-3)GlcNAc
# How it was run: as §1
# [19] = biological target: GlcA(b1-6)Gal
# How it was run: as §1
# [20] = biological target: GlcA3S(b1-3)Gal(b1-4)GlcNAc(b1-2)Man
# How it was run: as §1
# [21] = biological target: GlcA3S(b1-3)Gal(b1-4)GlcNAc(b1-3)Gal(b1-4)Glc
# How it was run: as §1
# [22] = biological target: GlcNAc(a1-3)Gal(b1-4)GlcNAc
# How it was run: as §1
# [23] = biological target: GlcNAc(a1-4)Gal(b1-3)GlcNAc
# How it was run: as §1
# [24] = biological target: GlcNAc(a1-4)Gal(b1-4)GalNAc
# How it was run: as §1
# [25] = biological target: GlcNAc(a1-4)Gal(b1-4)GlcNAc
# How it was run: as §1
# [26] = biological target: GlcNAc(a1-4)Gal(b1-4)GlcNAc(b1-3)Gal(b1-4)Glc
# How it was run: as §1
# [27] = biological target: GlcNAc(a1-4)Gal(b1-4)GlcNAc(b1-3)Gal(b1-4)GlcNAc
# How it was run: as §1
# [28] = biological target: GlcNAc(a1-4)Gal(b1-4)GlcNAc(b1-3)Gal(b1-4)GlcNAc(b1-3)Gal(b1-4)GlcNAc
# How it was run: as §1
# [29] = biological target: GlcNAc(a1-4)Gal(b1-4)GlcNAc(b1-3)Gal(b1-4)[Fuc(a1-3)]GlcNAc(b1-3)Gal(b1-4)[Fuc(a1-3)]GlcNAc
# How it was run: as §1
# [30] = biological target: GlcNAc(a1-6)Gal(b1-4)GlcNAc
# How it was run: as §1
# [31] = biological target: GlcNAc(b1-2)Gal(b1-3)GalNAc
# How it was run: as §1
# [32] = biological target: GlcNAc(b1-2)Man(a1-3)[GlcNAc(b1-2)Man(a1-6)]Man(b1-4)GlcNAc(b1-4)GlcNAc
# How it was run: as §1
# [33] = biological target: GlcNAc(b1-2)Man(a1-3)[GlcNAc(b1-2)Man(a1-6)]Man(b1-4)GlcNAc(b1-4)[Fuc(a1-6)]GlcNAc
# How it was run: as §1
# [34] = biological target: GlcNAc(b1-2)Man(a1-3)[GlcNAc(b1-4)][GlcNAc(b1-2)Man(a1-6)]Man(b1-4)GlcNAc(b1-4)GlcNAc
# How it was run: as §1
# [35] = biological target: GlcNAc(b1-2)Man(a1-3)[GlcNAc(b1-4)][GlcNAc(b1-2)Man(a1-6)]Man(b1-4)GlcNAc(b1-4)[Fuc(a1-6)]GlcNAc
# How it was run: as §1
# [36] = biological target: GlcNAc(b1-2)[GlcNAc(b1-4)]Man(a1-3)[GlcNAc(b1-2)Man(a1-6)]Man(b1-4)GlcNAc(b1-4)GlcNAc
# How it was run: as §1
# [37] = biological target: GlcNAc(b1-2)[GlcNAc(b1-4)]Man(a1-3)[GlcNAc(b1-4)][GlcNAc(b1-2)Man(a1-6)]Man(b1-4)GlcNAc(b1-4)GlcNAc
# How it was run: as §1
binder,measurement,setting,value
B1,glycan array binding signal (z-score),[1],0.102
same,glycan array binding signal (z-score),[2],-0.009
same,glycan array binding signal (z-score),[3],-0.57
same,glycan array binding signal (z-score),[4],0.06
same,glycan array binding signal (z-score),[5],-0.615
same,glycan array binding signal (z-score),[6],-0.462
same,glycan array binding signal (z-score),[7],-0.224
same,glycan array binding signal (z-score),[8],-0.766
same,glycan array binding signal (z-score),[9],-0.467
same,glycan array binding signal (z-score),[10],1.68
same,glycan array binding signal (z-score),[11],0.021
same,glycan array binding signal (z-score),[12],-0.421
same,glycan array binding signal (z-score),[13],-0.319
same,glycan array binding signal (z-score),[14],0.235
same,glycan array binding signal (z-score),[15],-0.369
same,glycan array binding signal (z-score),[16],-0.278
same,glycan array binding signal (z-score),[17],0.066
same,glycan array binding signal (z-score),[18],-0.617
same,glycan array binding signal (z-score),[19],-0.549
same,glycan array binding signal (z-score),[20],-0.634
same,glycan array binding signal (z-score),[21],1.17
same,glycan array binding signal (z-score),[22],-0.744
same,glycan array binding signal (z-score),[23],-0.265
same,glycan array binding signal (z-score),[24],0.601
same,glycan array binding signal (z-score),[25],0.021
same,glycan array binding signal (z-score),[26],0.222
same,glycan array binding signal (z-score),[27],-0.352
same,glycan array binding signal (z-score),[28],-0.245
same,glycan array binding signal (z-score),[29],-0.426
same,glycan array binding signal (z-score),[30],-0.611
same,glycan array binding signal (z-score),[31],-0.345
same,glycan array binding signal (z-score),[32],-0.516
same,glycan array binding signal (z-score),[33],-0.011
same,glycan array binding signal (z-score),[34],-0.544
same,glycan array binding signal (z-score),[35],-0.291
same,glycan array binding signal (z-score),[36],-0.363
same,glycan array binding signal (z-score),[37],-0.951
